Data published in US20190185532A1 (UNIVERSITY OF BIRMINGHAM, published 2019).

Target: T1, MMRN2^FL (full-length human MMRN2 with a polyhistidine (His) tag) (human, UniProt Q9H8L6 23-949)
T1 construct: mature; Used as lysate of transfected HEK293T cells; Forms large multimers under non-reduced conditions; also called MMRN2 full-length; MMRN2 FL with His tag; not shown: C-terminal BirA and His tags of vector pHL-Avitag3
T1 sequence (looked up): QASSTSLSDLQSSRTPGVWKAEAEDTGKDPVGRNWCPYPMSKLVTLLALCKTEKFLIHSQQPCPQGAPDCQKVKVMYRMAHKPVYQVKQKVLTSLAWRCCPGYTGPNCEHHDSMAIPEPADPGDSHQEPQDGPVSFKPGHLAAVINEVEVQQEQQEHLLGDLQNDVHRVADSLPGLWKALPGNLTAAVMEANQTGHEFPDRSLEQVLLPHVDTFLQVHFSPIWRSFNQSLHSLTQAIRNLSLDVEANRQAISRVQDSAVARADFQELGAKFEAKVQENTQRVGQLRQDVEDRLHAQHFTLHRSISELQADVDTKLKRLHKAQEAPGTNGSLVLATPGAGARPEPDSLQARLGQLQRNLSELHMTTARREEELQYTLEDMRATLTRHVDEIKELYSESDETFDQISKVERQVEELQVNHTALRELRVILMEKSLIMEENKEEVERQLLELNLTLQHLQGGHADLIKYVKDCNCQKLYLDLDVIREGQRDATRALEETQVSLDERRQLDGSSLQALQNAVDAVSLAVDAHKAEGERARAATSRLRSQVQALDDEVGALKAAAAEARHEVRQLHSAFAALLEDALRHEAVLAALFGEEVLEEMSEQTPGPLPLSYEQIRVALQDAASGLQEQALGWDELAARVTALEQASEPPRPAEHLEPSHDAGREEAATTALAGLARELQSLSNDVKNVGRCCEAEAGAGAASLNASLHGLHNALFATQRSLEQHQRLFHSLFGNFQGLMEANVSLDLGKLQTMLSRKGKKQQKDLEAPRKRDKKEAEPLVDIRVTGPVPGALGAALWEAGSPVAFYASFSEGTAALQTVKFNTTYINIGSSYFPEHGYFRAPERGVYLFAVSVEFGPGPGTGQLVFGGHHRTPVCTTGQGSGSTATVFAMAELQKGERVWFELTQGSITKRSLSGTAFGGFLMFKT
Assay: far western blot, non-reduced; HEK293T lysates of GFP-tagged proteins probed with MMRN2^FL-His lysate
Description: We previously identified MMRN2 as a binding partner of CLEC14A, one of the members of the C-type lectin domain (CTLD) group 14 family (4). To test whether any of the other CTLD group 14 family members also bind to MMRN2, we employed far western blotting using MMRN2 protein probe as a surrogate for a primary antibody in a standard western blot set up. The CTLD group 14 family members CLEC14A, CD93 and thrombomodulin were all constructed with a C-terminal green fluorescent protein (GFP) tag (FIG. 1A). Constructs were transfected into HEK293T cells and lysates were separated by SDS-PAGE under non-reducing conditions to keep disulphide bonds intact, then transferred to PVDF membranes and blotted using HEK293T lysates overexpressing full-length human MMRN2 with a polyhistidine (His) tag. MMRN2 protein binding was detected by staining with an anti-His tag antibody.
Whole cell protein lysates were made by incubating with lysis buffer (1% (v/v) NP40, 10 mM Tris pH7.5, 150 mM NaCl and 1 mM EDTA) and pelleting insoluble material. Standard protocols for western blotting were used. […] The epitope tag of each probed protein was detected with secondary antibody incubation (anti-His or anti-Fc HRP conjugate) and then tertiary anti-mouse HRP for the case of anti-His.

B1: thrombomodulin (human, C-terminal GFP tag, expressed in HEK293T) (receptor)
chain: [about 500 residues not listed]GLLIGISIASLCLVVALLALLCHLRKKQGAARAKMEYKCAAPSKEVVLQHVRTERTPQRL
notes: whole, on cells; On cells in flow cytometry; as non-reduced HEK293T lysate in far western blots; also called THBD; THBD wt; not shown: C-terminal green fluorescent protein (GFP) tag from vector pEGFP-N1
Question: Does B1 bind?
Answer: no binding (tested: diluted 1:50)
